Data on 2 molecules can be found in patent publication US20180291110A1 (Hoffmann-La Roche, published 2018).

In assay [1] the target is T1, HER2 on cells (BT474-M1, BT-474) (human, UniProt P04626).
T1 construct: whole, on cells; also called HER2+ BT474-M1 cells
As to the kind of experiment: flow cytometry on HER2+ BT474 M1 cells, PE-labeled goat anti-human Fc gamma secondary antibody.

Assay [2] concerns the target T2, transferrin receptor on BA/F3 cells (UniProt Q62351).
T2 construct: whole, on cells; also called TfR+ BA/F3 cells; TfR+ BAF3 cells
T2 sequence (Q62351 whole entry): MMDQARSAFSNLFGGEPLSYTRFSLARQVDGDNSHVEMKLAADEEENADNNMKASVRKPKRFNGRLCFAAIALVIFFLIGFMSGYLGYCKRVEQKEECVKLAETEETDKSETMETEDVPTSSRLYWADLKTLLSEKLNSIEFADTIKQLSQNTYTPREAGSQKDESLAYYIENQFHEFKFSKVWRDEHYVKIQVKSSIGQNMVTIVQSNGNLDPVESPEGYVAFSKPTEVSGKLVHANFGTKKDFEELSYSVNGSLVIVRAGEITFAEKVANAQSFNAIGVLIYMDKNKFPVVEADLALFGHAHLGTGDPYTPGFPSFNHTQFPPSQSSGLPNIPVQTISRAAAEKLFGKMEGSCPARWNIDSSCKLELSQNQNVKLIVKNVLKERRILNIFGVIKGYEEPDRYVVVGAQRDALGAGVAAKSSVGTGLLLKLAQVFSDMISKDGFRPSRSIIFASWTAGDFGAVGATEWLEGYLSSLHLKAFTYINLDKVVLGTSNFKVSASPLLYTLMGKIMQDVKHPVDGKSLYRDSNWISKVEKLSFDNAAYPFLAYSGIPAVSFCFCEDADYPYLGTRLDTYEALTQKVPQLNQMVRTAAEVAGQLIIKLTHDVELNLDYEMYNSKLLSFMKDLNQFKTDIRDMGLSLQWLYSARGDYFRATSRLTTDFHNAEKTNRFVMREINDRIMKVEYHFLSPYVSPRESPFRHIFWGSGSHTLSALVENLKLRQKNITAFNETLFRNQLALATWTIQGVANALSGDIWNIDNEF
As to the kind of experiment: flow cytometry on mTfR+ BA/F3 cells, PE-labeled goat anti-human Fc gamma secondary antibody.

B1: Herceptarg-scFab(8D3) (BBB-0580) (other)
heavy 1: [about 450 residues with a human IgG1 Fc not printed]GGSGGGGSGGGGSGGGGSDIQMTQSPASLSASLEEIVTITCQASQDIGNWLAWYQQKPGKSPQLLIYGATSLADGVPSRFSGSRSGTQFSLKISRVQVEDIGIYYCLQAYNTPWTFGGGTKVEIKRTVAAPSVFIFPPSDEQLKSGTASVVCLLNNFYPREAKVQWKVDNALQSGNSQESVTEQDSKDSTYSLSSTLTLSKADYEKHKVYACEVTHQGLSSPVTKSFNRGECGGGGSGGGGSGGGGSGGGGSGGGGSGGGGSGGEVQLVESGGGLVQPGNSLTLSCVASGFTFSNYGMHWIRQAPKKGLEWIAMIYYDSSKMNYADTVKGRFTISRDNSKNTLYLEMNSLRSEDTAMYYCAVPTSHYVVDVWGQGVSVTVSSASTKGPSVFPLAPSSKSTSGGTAALGCLVKDYFPEPVTVSWNSGALTSGVHTFPAVLQSSGLYSLSSVVTVPSSSLGTQTYICNVNHKPSNTKVDKKVEPKSC
heavy 2: EVQLVESGGGLVQPGGSLRLSCAASGFTFNDYTMDWVRQAPGKGLEWVADVNPNSGGSIVNRRFKGRFTLSVDRSKNTLYLQMNSLRAEDTAVYYCARNLGPFFYFDYWGQGTLVTVSSASTKGPSVFPLAPSSKSTSGGTAALGCLVKDYFPEPVTVSWNSGALTSGVHTFPAVLQSSGLYSLSSVVTVPSSSLGTQTYICNVNHKPSNTKVDKKV[human IgG1 Fc with changes not printed]
light: DIQMTQSPSSLSASVGDRVTITCKASQDVSTAVAWYQQKPGKAPKLLIYSASFRYTGVPSRFSGSRSGTDFTLTISSLQPEDFATYYCQQHYTTPPTFGQGTKVEIKRTVAAPSVFIFPPSDEQLKSGTASVVCLLNNFYPREAKVQWKVDNALQSGNSQESVTEQDSKDSTYSLSSTLTLSKADYEKHKVYACEVTHQGLSSPVTKSFNRGEC
notes: Trispecific, trivalent antibody; also called Herceptarg-8D3; trivalent Herceptarg-scFab(8D3)
For B1, in assay [1], the “EC50 (read off the curve)” value was ~5 nM. In assay [2], the binding result was “binds”.

B2: Herceptarg(LALA)-scFab(8D3) (BBB-0581) (other)
heavy 1: [about 450 residues with a human IgG1 Fc not printed]GGSGGGGSGGGGSGGGGSDIQMTQSPASLSASLEEIVTITCQASQDIGNWLAWYQQKPGKSPQLLIYGATSLADGVPSRFSGSRSGTQFSLKISRVQVEDIGIYYCLQAYNTPWTFGGGTKVEIKRTVAAPSVFIFPPSDEQLKSGTASVVCLLNNFYPREAKVQWKVDNALQSGNSQESVTEQDSKDSTYSLSSTLTLSKADYEKHKVYACEVTHQGLSSPVTKSFNRGECGGGGSGGGGSGGGGSGGGGSGGGGSGGGGSGGEVQLVESGGGLVQPGNSLTLSCVASGFTFSNYGMHWIRQAPKKGLEWIAMIYYDSSKMNYADTVKGRFTISRDNSKNTLYLEMNSLRSEDTAMYYCAVPTSHYVVDVWGQGVSVTVSSASTKGPSVFPLAPSSKSTSGGTAALGCLVKDYFPEPVTVSWNSGALTSGVHTFPAVLQSSGLYSLSSVVTVPSSSLGTQTYICNVNHKPSNTKVDKKVEPKSC
heavy 2: EVQLVESGGGLVQPGGSLRLSCAASGFTFNDYTMDWVRQAPGKGLEWVADVNPNSGGSIVNRRFKGRFTLSVDRSKNTLYLQMNSLRAEDTAVYYCARNLGPFFYFDYWGQGTLVTVSSASTKGPSVFPLAPSSKSTSGGTAALGCLVKDYFPEPVTVSWNSGALTSGVHTFPAVLQSSGLYSLSSVVTVPSSSLGTQTYICNVNHKPSNTKVDKKVEPKSCDKTHTCPPCPAPEAAGGPSVFLFPPKPKDTLMISRTPEVTCVVVDVSHEDPEVKFNWYVDGVEVHNAKTKPREEQYNSTYRVVSVLTVLHQDWLNGKEYKCKVSNKALGAPIEKTISKAKGQPREPQVCTLPPSRDELTKNQVSLSCAVKGFYPSDIAVEWESNGQPENNYKTTPPVLDSDGSFFLVSKLTVDKSRWQQGNVFSCSVMHEALHNRFTQKSLSLSPGK
light: DIQMTQSPSSLSASVGDRVTITCKASQDVSTAVAWYQQKPGKAPKLLIYSASFRYTGVPSRFSGSRSGTDFTLTISSLQPEDFATYYCQQHYTTPPTFGQGTKVEIKRTVAAPSVFIFPPSDEQLKSGTASVVCLLNNFYPREAKVQWKVDNALQSGNSQESVTEQDSKDSTYSLSSTLTLSKADYEKHKVYACEVTHQGLSSPVTKSFNRGEC
notes: Trispecific, trivalent antibody; also called Herceptarg (LALA)-8D3; Herceptarg(LALA-PG)-scFab(8D3)
In the case of B2, in assay [1], the half-maximal effective concentration (EC50 (read off the curve)) was ~3 nM. Also, in assay [2], the binding result is “binds”.
